Experimental data published in article PMC4336329 (PLoS ONE, 2015).
The campaign covered roughly 310,000 compounds. About 14,000 (4.5%) showed an effect of 50% or more. The effect is printed as a negative number. The list shows a part of the results.

These compounds were tested against human ether-à-go-go-related gene (hERG) potassium channel (human, UniProt Q12809) (assay: primary screen, population patch clamp on CHO cells stably expressing hERG).
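Also: peak tail current of the secondary pulse compared with the same well before compound.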

Sequence of human ether-à-go-go-related gene (hERG) potassium channel (Q12809 whole entry, looked up): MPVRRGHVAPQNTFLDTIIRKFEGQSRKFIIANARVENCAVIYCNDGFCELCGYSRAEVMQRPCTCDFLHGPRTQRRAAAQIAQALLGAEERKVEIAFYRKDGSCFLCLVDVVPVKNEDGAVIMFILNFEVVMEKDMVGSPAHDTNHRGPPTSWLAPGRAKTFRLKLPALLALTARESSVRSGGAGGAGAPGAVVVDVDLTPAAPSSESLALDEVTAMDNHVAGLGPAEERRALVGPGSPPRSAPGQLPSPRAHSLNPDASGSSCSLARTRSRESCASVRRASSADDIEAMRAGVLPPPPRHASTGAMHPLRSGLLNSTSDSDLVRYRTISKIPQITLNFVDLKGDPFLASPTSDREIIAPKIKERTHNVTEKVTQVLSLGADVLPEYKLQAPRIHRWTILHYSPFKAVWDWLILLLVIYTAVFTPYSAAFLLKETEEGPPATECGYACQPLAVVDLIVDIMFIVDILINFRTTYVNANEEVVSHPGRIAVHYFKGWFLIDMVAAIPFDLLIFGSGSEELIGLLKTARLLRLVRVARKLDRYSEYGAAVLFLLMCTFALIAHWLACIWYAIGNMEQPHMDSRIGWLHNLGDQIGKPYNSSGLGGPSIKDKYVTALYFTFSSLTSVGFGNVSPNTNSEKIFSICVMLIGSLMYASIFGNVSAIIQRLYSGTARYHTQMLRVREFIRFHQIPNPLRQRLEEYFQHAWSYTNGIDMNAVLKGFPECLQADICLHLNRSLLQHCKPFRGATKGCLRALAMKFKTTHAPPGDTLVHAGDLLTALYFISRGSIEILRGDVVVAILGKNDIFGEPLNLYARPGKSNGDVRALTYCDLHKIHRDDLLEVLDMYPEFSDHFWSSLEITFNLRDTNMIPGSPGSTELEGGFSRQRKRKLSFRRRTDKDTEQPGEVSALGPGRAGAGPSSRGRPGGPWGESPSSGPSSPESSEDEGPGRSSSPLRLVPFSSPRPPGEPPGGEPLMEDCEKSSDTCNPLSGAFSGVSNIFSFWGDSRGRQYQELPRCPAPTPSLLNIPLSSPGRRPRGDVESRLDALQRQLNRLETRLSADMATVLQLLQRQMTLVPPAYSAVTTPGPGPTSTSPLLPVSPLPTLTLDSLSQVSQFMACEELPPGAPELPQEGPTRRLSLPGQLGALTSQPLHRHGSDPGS

Compared with O=C1CC2(CCOCC2)Oc2ccc3ccccc3c21, COc1ccc(NC(=O)N2CCC(Cc3ccccc3)CC2)cc1 is higher in “hERG current change (%, negative = inhibition) at 10uM” value: -6.48% for the first, -3.45% for the second.

Going from O=C(NCC1(O)CCCCC1)C1CCC(=O)N(CCc2ccccc2)C1 (stereo not shown) to NC(=O)C1CCN(C(=O)CCn2c(=O)oc3ccccc32)CC1, the “hERG current change (%, negative = inhibition) at 10uM” value falls from 35% to 0.894%.

Going from CC(C)(C)NC(=O)c1ccccc1NC(=O)C1CCCO1 (stereo not shown) to COC(=O)c1cn(CC(=O)N2C(C)CCCC2C)c2ccccc12 (stereo not shown), the “hERG current change (%, negative = inhibition) at 10uM” value falls from -0.0567% to -0.901%.

First: CCOc1ccc(CN2CCCN(C)CC2)cc1
Second: CCOc1ccc(CNC(=O)C2CCN(S(=O)(=O)CC)CC2)cc1OC
The “hERG current change (%, negative = inhibition) at 10uM” value of the first is lower: -17% for the first, -2.72% for the second.

First: C[C@@H](C(=O)NCCc1c[nH]c2ccccc12)[C@@H]1C[C@@]1(C)[C@@H](NC(=O)OCc1ccccc1)c1ccccc1
Second: O=C(COC(=O)/C=C/c1cccc(Cl)c1)NC(=O)NCc1ccccc1
The “hERG current change (%, negative = inhibition) at 10uM” value of the first is higher: 25.5% for the first, -11.7% for the second.

First: CCCCn1c(N)c(N(CC(C)C)C(=O)C2CCN(S(=O)(=O)c3ccc(C)cc3)CC2)c(=O)[nH]c1=O
Second: Cc1ccc(-n2ncc3c2CC(C)(C)CC3NC(=O)CCc2cnn(C)c2)cc1 (stereo not shown)
The “hERG current change (%, negative = inhibition) at 10uM” value of the first is higher: 12.5% for the first, -52.6% for the second.

First: Cc1ccc(/C=C2/C(=O)N(c3ccccc3)C(=S)N2C)o1
Second: Cc1ccc(-n2c(O)c(C=NC3CCS(=O)(=O)C3)c3ccccc3c2=O)cc1 (stereo not shown)
The “hERG current change (%, negative = inhibition) at 10uM” value of the first is higher: 2.75% for the first, -3.54% for the second.

First: Cn1nnc(NC(=O)c2ccc([N+](=O)[O-])cc2Cl)n1
Second: COc1cc([N+](=O)[O-])cc2sc(NC(=O)C(C)(C)C)nc12
The “hERG current change (%, negative = inhibition) at 10uM” value of the first is lower: -2.06% for the first, 6.2% for the second.

Compared with CN(CCC1CCOCC1)C(=O)CC1C(=O)NCCN1Cc1ccccc1F (stereo not shown), O=C(NCC(c1cccnc1)N1CCN(c2ccc(F)cc2)CC1)c1ccccc1 (stereo not shown) is lower in “hERG current change (%, negative = inhibition) at 10uM” value: 4.08% for the first, -40.2% for the second.

Compared with COc1ccc(/C=C2\CCn3c2nc2cc(C(=O)O)ccc2c3=O)cc1OC, CCc1ccc(-c2nc(CN3CCCC(C(=O)NCCc4ccc(OC)c(OC)c4)C3)c(C)o2)cc1 (stereo not shown) is lower in “hERG current change (%, negative = inhibition) at 10uM” value: 6.7% for the first, -50.5% for the second.

Compared with CCOc1cccc(=[NH+]C2CCCCC2)c2c(C)n(C)c(C)c12.[O-][Cl+3]([O-])([O-])[O-], Cc1cccc(NC2=NC(=S)N(c3ccc(C(=O)O)cc3)C23CCCCC3)c1 is higher in “hERG current change (%, negative = inhibition) at 10uM” value: -70.3% for the first, 17.5% for the second.

Going from COc1cccc(CNc2ccc3c(c2)ncn3C)c1OC to COc1cccc(/C=N/NC(=O)c2cc(-c3cccn3C)n[nH]2)c1O, the “hERG current change (%, negative = inhibition) at 10uM” value falls from 19.9% to -3.54%.

First: O=C(O)/C=C/C(=O)NNC(=O)c1cc(-c2ccccc2)n[nH]1
Second: Cc1ccc(OCC(=O)Nc2ccc(NC(=O)c3ccccc3)cc2)cc1C
The “hERG current change (%, negative = inhibition) at 10uM” value of the first is higher: 24.1% for the first, 19% for the second.

Going from CCn1c(CNc2ccc(C)cc2)nnc1SCC(N)=O to CCC(c1nnc(SCC(=O)Nc2ccc(C(=O)N(C)C)cc2)n1Cc1ccccc1)N(C)C (stereo not shown), the “hERG current change (%, negative = inhibition) at 10uM” value falls from 9.46% to 1.55%.

First: CC(C)c1cc(C(=O)NNC(=S)NC2CCCCC2)cs1
Second: C(=N\NC1=NCCCCC1)/c1c[nH]c2ccccc12.Cl
The “hERG current change (%, negative = inhibition) at 10uM” value of the first is higher: 4.74% for the first, -24.3% for the second.

First: C=CCn1c(SCC(=O)Nc2cc(C)c(Cl)cc2OC)nnc1-c1ccco1
Second: O=C(CSc1nc2[nH]ncc2c(=O)[nH]1)NCc1ccccc1Cl
The “hERG current change (%, negative = inhibition) at 10uM” value of the first is lower: -23.6% for the first, 6.86% for the second.

Compared with CON/C=C(\C=Nc1ccc(F)cc1)c1ncc(C(F)(F)F)cc1Cl, CCc1cc(-c2n[nH]c(C)c2Oc2ccc(C(C)C)cc2)c(O)cc1O is lower in “hERG current change (%, negative = inhibition) at 10uM” value: 6.26% for the first, -0.439% for the second.

First: CCOC(=O)COc1ccc2ccccc2c1/C=C/[N+](=O)[O-]
Second: Cc1ccc(C(=O)COc2nc(C)cc(C)c2C#N)cc1
The “hERG current change (%, negative = inhibition) at 10uM” value of the first is higher: -0.943% for the first, -7.95% for the second.

Compared with CC(=O)N(C)c1ccc(NS(=O)(=O)c2cccc3nsnc23)cc1, Cc1ccc(-c2cc(C(=O)NCc3cccs3)no2)cc1 is lower in “hERG current change (%, negative = inhibition) at 10uM” value: 17% for the first, 9.41% for the second.

Compared with Cc1[nH]c(=O)[nH]c(=O)c1/C=N/NC(=O)CCNC(=O)OC(C)(C)C, COC(=O)C(Cc1ccc(OC(=O)c2ccc(Cl)cc2)cc1)N1Cc2ccccc2C1=O (stereo not shown) is higher in “hERG current change (%, negative = inhibition) at 10uM” value: -4.36% for the first, 7.39% for the second.

First: COc1cc(OC)cc(OCC(O)Cn2ccnc2C)c1 (stereo not shown)
Second: COc1ccc(/C=N/Nc2c(Cl)cc(Cl)cc2Cl)cc1CN1CCOCC1
The “hERG current change (%, negative = inhibition) at 10uM” value of the first is higher: -0.281% for the first, -3.48% for the second.

With CC1(C)O[C@@H]2[C@H](O1)[C@@H](CO)O[C@H]2n1cnc2c(N)ncnc21 the “hERG current change (%, negative = inhibition) at 10uM” value was 12.3%.
